Source: PubChem BioAssay AID504332 (National Center for Advancing Translational Sciences (NCATS), 2011)
About 31,000 (8.9%) of roughly 350,000 compounds were called active. Inconclusive means that the source gave no clear call. Such entries were picked first, then a sample of the others. Calls come from the whole dose curve; as a rule, active = well fitted inhibition curve with a large enough effect; inconclusive = small, poorly fitted or top-dose-only effect; inactive = no such curve, though single readings can be large or run the other way. Where the call is inconclusive, the potency comes from a doubtful curve fit.
% is set by controls: 0 for no effect and ±100 for the full control effect; potency is the fitted concentration of half-maximal effect; tags give direction and shape of the fitted curve.
Note: nearly all actives have a fitted effect of over 75% in size.

These compounds were tested against Histone-lysine N-methyltransferase EHMT2 (Homo sapiens) (UniProt Q96KQ7) (assay: qHTS Assay for Inhibitors of Histone Lysine Methyltransferase G9a). Conditions: G9a H3K9 monomethylation, AlphaScreen, 2 h; activity, negative = inhibition: at 59 µM (top of the series) unless noted.
UniProt Q96KQ7, sequence (Q96KQ7 whole entry, looked up): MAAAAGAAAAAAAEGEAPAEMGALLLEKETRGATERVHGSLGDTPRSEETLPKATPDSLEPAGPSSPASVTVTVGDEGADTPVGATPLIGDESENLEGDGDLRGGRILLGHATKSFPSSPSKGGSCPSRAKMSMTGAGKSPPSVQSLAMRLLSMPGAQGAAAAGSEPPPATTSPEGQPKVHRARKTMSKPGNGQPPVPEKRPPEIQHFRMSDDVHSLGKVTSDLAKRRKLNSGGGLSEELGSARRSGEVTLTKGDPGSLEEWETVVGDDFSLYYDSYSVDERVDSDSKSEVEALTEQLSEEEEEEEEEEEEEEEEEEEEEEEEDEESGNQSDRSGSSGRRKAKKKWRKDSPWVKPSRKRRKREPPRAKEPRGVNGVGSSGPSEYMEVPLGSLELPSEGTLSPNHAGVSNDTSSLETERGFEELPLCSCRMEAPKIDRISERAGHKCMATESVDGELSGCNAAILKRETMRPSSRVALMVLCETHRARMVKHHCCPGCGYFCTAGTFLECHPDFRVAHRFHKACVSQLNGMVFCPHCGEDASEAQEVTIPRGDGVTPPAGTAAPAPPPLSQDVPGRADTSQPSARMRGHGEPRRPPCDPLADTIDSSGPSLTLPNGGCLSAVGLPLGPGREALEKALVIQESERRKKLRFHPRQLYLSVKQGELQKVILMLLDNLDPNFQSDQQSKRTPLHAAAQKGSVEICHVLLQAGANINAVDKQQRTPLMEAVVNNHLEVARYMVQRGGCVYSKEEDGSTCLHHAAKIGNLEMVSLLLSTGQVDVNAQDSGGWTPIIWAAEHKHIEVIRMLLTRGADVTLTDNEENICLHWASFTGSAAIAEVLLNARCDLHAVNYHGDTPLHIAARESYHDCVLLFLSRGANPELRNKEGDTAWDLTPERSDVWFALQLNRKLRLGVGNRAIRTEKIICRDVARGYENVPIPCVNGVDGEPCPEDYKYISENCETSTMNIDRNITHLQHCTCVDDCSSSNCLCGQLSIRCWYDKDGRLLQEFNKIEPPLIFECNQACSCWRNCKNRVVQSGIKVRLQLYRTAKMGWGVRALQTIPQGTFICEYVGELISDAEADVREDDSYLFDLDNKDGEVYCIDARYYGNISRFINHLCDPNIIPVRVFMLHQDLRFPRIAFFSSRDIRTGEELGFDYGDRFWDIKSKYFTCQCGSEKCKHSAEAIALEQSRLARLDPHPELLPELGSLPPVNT
Summary of the method: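 Methyltransferase reactions run at room temperature for 2 h (20 nM enzyme, 500 nM biotin-H3K9 peptide, 20 uM SAM) after a 15 min compound preincubation; product detected by AlphaScreen beads and anti-H3K9me1 antibody.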
For `Cc1oc2ccc(O)c(CN3CCCCCC3)c2c1C(=O)Nc1cccc(C(F)(F)F)c1`, the Potency was “inactive”. With `CN(C(=O)CSc1nc2ccccc2n1C)C1CCS(=O)(=O)C1` (configuration not stated) the activity, negative = inhibition was inactive: 5.35% [at 12.7 µM]. With `O=[N+]([O-])c1ccc(N/N=C2\CC3CC=CC23)c([N+](=O)[O-])c1` (configuration not stated) the Potency was active: 14.1 µM. `Cc1ccc2occ(/C=N/O)c(=O)c2c1` was tested, and the Potency was “inactive”. For `Cn1c(=O)c(=O)n(C)c2cc(S(=O)(=O)CCC(=O)N3CCOCC3)ccc21`, the Potency was “inactive”. `O=C(CCCc1ccccc1)Nc1cccc2c1CCCC2` was tested, and the Potency was inconclusive: 1.78 µM [inhibitor, partial curve, poor fit]. In the case of `O=C1c2ccccc2C(=O)c2c1cccc2N1CCN(CCO)CC1`, the Potency is reported as inconclusive: 50.1 µM [inhibitor, partial curve, poor fit]. For `Cc1ccc(C)c(N2CCN(C(=O)Cn3nc(C)c4sc5ccccc5c4c3=O)CC2)c1`, the Potency was active: 12.6 µM. For `COc1ccccc1NS(=O)(=O)c1cn(C)c(C)n1`, the Potency was “inactive”. In the case of `CCOC(=O)c1c(C)n(C)c2ccc(OC)c(NC(=O)CN3CCN(Cc4ccccc4)CC3)c12`, the Potency is reported as “inactive”. In the case of `CCO[C@@H]1OC(C(N)=O)=C[C@H](c2coc3ccccc3c2=O)[C@H]1CCCO`, the activity, negative = inhibition is reported as inconclusive: -71.2% [inhibitor]. In the case of `CCOC(=O)C(=CNNc1ccsc1C(=O)OC)C(=O)OCC`, the Potency is reported as inconclusive: 50.1 µM [inhibitor, partial curve, poor fit]. With `COc1cc(NC(=O)c2ccccc2F)c(OC)cc1NC(=O)CN1CCCCC1` the Potency was inconclusive: 89.1 µM [inhibitor, single point]. For `Cc1cc(=O)c(C(=O)O)nn1-c1ccccc1`, the Potency was inconclusive: 79.4 µM [inhibitor, single point]. In the case of `COc1ccc(-c2nc(CSCC(=O)NCCC(C)C)c(C)o2)cc1OC`, the Potency is reported as “inactive”. For `CCOc1cccc(OCCOCCNC(C)(C)C)c1`, the Potency was active: 14.1 µM. In the case of `Cc1sc(N)c(C#N)c1C`, the Potency is reported as inconclusive: 28.2 µM [inhibitor, single point]. In the case of `N#CC1(Cc2ccccc2)c2ccccc2C=CN1C(=O)c1ccccc1` (configuration not stated), the activity, negative = inhibition is reported as inconclusive: -81.4% [inhibitor]. `COc1ccc(C)cc1-n1nnnc1SCC(=O)NC(=O)NCc1ccco1` was tested, and the Potency was inconclusive: 17.8 µM [inhibitor, partial curve, poor fit]. For `CCCOc1ccccc1-c1nc(SCCC(=O)O)n[nH]1`, the Potency was active: 11.2 µM. In the case of `COC(=O)c1ccc(CNC(=O)COC(=O)COc2ccc(OC)cc2)cc1`, the Potency is reported as inconclusive: 79.4 µM [inhibitor, single point]. With `COCCCn1c(SCC(=O)Nc2ccc(C)cc2)nc2ccccc2c1=O` the Potency was inconclusive: 79.4 µM [inhibitor, partial curve, poor fit]. `CCOc1ccccc1-c1nnc(SCC(=O)NC2CC3CCC2C3)n1CC` (configuration not stated) was tested, and the Potency was active: 44.7 µM. `Cc1cc(Nc2cccc(Cl)c2)nc2ccc(NC(=O)COc3ccc(Cl)cc3)cc12` was tested, and the Potency was “inactive”. `Cc1c(N2C(=O)CSC2=S)c(=O)n(-c2ccccc2)n1C` was tested, and the Potency was inconclusive: 89.1 µM [inhibitor, single point]. For `CCOc1ccccc1N1C(=O)CC(N(O)c2ccccc2)C1=O` (configuration not stated), the Potency was inconclusive: 89.1 µM [inhibitor, single point]. In the case of `COc1ccc(OC)c(-n2c(SC)nnc2-c2c[nH]c3ccccc23)c1`, the Potency is reported as inconclusive: 89.1 µM [inhibitor, single point]. With `CCCCCCN(C(=O)CCCCCN1C(=O)NC(c2ccc(-c3ccccc3)cc2)C(C(=O)OCc2ccccc2)=C1C)C(C)C(=O)NCCCC` (configuration not stated) the Potency was inconclusive: 79.4 µM [inhibitor, single point]. `O=S(=O)(Nc1ccccc1O)c1cccc2cccnc12` was tested, and the Potency was inconclusive: 70.8 µM [inhibitor, single point]. With `CCC1CN(C(=O)N2CCC(C(=O)NCc3cccc(F)c3)CC2)c2cc(C)ccc2O1` (configuration not stated) the Potency was inconclusive: 4.47 µM [inhibitor, partial curve, poor fit]. In the case of `O=C(NC(=S)Nc1cc(C(F)(F)F)ccc1N1CCOCC1)c1sc2ccccc2c1Cl`, the Potency is reported as “inactive”. For `Oc1ccc(/C=N/N=C/c2ccc(O)cc2)cc1`, the Potency was inconclusive: 70.8 µM [inhibitor, partial curve]. With `O=C(NC1CCCc2ccccc21)c1cn2ccccc2n1` (configuration not stated) the Potency was inconclusive: 50.1 µM [inhibitor, partial curve]. With `COc1cccc(Nc2nnc(SCC(=O)N(CC(C)C)CC(C)C)s2)c1` the Potency was inconclusive: 39.8 µM [inhibitor, partial curve, poor fit]. `Cc1ccc(-n2nc(C)c3c(C(=O)NCCc4ccc(S(N)(=O)=O)cc4)cc(C)nc32)cc1` was tested, and the Potency was “inactive”. For `NC(=O)C1CCN(C(=O)c2ccc3nc(-c4ccccc4)c(-c4ccccc4)nc3c2)CC1`, the Potency was “inactive”. `O=C(O)CNC(=O)CC1S/C(=N/N=C/c2ccccc2O)NC1=O` (configuration not stated) was tested, and the Potency was “inactive”. With `CCN1CCc2c(sc(NC(=O)c3ccc(S(=O)(=O)N(CC)c4ccccc4)cc3)c2C(N)=O)C1` the Potency was inconclusive: 79.4 µM [inhibitor, single point]. For `O=C(c1ccco1)N1CCN(S(=O)(=O)c2ccc(S(=O)(=O)NC3CC3)cc2)CC1`, the Potency was inconclusive: 3.98 µM [inhibitor, single point]. For `CCOC(=O)C1=C2SCCN2C(=O)C(C#N)C1(C)C` (configuration not stated), the Potency was inconclusive: 1.58 µM [inhibitor, partial curve, poor fit]. In the case of `O=C(NNC(=O)c1ccccc1OCc1ccccc1Cl)c1csc(N2CCOCC2)n1`, the Potency is reported as “inactive”. In the case of `Cc1ccc(NC(=O)CN(C)CC(=O)Nc2sc3c(c2C(N)=O)CCC3)cc1`, the Potency is reported as “inactive”. For `COc1ccc(OC(=O)Nc2ccccc2)cc1`, the Potency was “inactive”. With `CCN(CC)CCn1c(NCc2ccc(C)o2)nc2ccccc21` the Potency was active: 50.1 µM. With `Cc1ccc(-n2nc(C)c3c(C(F)(F)F)cc(-c4cccnc4)nc32)cc1C` the Potency was “inactive”. For `C=CCn1c(SCc2c(C(=O)OC)sc(N)c2C(=O)OC)nnc1-c1ccc(Cl)cc1`, the Potency was inconclusive: 17.8 µM [inhibitor, partial curve, poor fit]. In the case of `O=C(Nc1cccnc1)c1cc2c(ccc3ccccc32)o1`, the Potency is reported as inconclusive: 25.1 µM [inhibitor, single point].
